# This is one part of the list.
# B1: SCA (Schizophyllum commune) (protein)
# chain: MGIDQGVYLITNAGSGTAATLKDGYVKGWERIKGKEQLNQLWFVKSVKTSASDPGYAAFNLATNKVLDLEKGLADRGTPILGWDYHEGDNQHWVIKKQADGKYYKIQSVKTQTFVDLNNGGKDNGTKIQGWVGSWDETNSHQRWVFNQFSATGSRIKSILDTHPKIHGKVIVEWPDRIYFTPDQYIFEAIWAKTGLADIKPRDPLFQSEAYEKVFKGWVVSRAQEIIKVDGFDILVGSLSLVEKSTQKIKVLDVSVRTSDDKSPDLSQIVFFDPESGRTLVDIPEGYEVNSVII
# Tests used:
# Assay in all cases: glycan array binding signal (z-score within array); higher = stronger binding
# Conditions in all cases: glycan notation: IUPAC condensed, linker removed
# Gal6S(b1-4)Glc6S = target: Gal6S(b1-4)Glc6S
# How it was run: (§1)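 Glycan array data were curated from 3228 arrays in the Consortium for Functional Glycomics database and kept only where the protein sequence was available. Glycan names were converted to IUPAC-condensed notation, and columns mapping to the same glycan were averaged. The binding signal is a within-array Z-score, averaged across arrays of the same protein sequence at different concentrations or buffers and across linkers. Negative Z-scores can be read as non-binding.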
# Gal6S(b1-4)GlcNAc = target: Gal6S(b1-4)GlcNAc
# How it was run: as §1
# Gal6S(b1-4)GlcNAc6S = target: Gal6S(b1-4)GlcNAc6S
# How it was run: as §1
# GalNAc(a1-3)Gal = target: GalNAc(a1-3)Gal
# How it was run: as §1
# GalNAc(a1-3)GalNAc = target: GalNAc(a1-3)GalNAc
# How it was run: as §1
# [1] = target: GalNAc(a1-3)GalNAc(b1-3)Gal(a1-4)Gal(b1-4)Glc
# How it was run: as §1
# [2] = target: GalNAc(a1-3)GalNAc(b1-3)Gal(a1-4)Gal(b1-4)GlcNAc
# How it was run: as §1
# GalNAc(b1-3)Gal = target: GalNAc(b1-3)Gal
# How it was run: as §1
# [3] = target: GalNAc(b1-3)Gal(a1-4)Gal(b1-4)GlcNAc
# How it was run: as §1
# [4] = target: GalNAc(b1-3)Gal(a1-4)Gal(b1-4)GlcNAc(b1-3)Gal(b1-4)Glc
# How it was run: as §1
# [5] = target: GalNAc(b1-3)Gal(a1-6)Gal(b1-4)Glc
# How it was run: as §1
# GalNAc(b1-3)GalNAc = target: GalNAc(b1-3)GalNAc
# How it was run: as §1
# GalNAc(b1-4)Gal(b1-4)Glc = target: GalNAc(b1-4)Gal(b1-4)Glc
# How it was run: as §1
# GalNAc(b1-4)GlcNAc = target: GalNAc(b1-4)GlcNAc
# How it was run: as §1
# [6] = target: GalNAc(b1-4)GlcNAc(b1-2)Man(a1-3)[GalNAc(b1-4)GlcNAc(b1-2)Man(a1-6)]Man(b1-4)GlcNAc(b1-4)GlcNAc
# How it was run: as §1
# GalNAc(b1-6)GalNAc = target: GalNAc(b1-6)GalNAc
# How it was run: as §1
# Glc(a1-4)Glc = target: Glc(a1-4)Glc
# How it was run: as §1
# [7] = target: Glc(a1-4)Glc(a1-4)Glc(a1-4)Glc
# How it was run: as §1
# Glc(a1-6)Glc(a1-6)Glc = target: Glc(a1-6)Glc(a1-6)Glc
# How it was run: as §1
# [8] = target: Glc(a1-6)Glc(a1-6)Glc(a1-6)Glc
# How it was run: as §1
# Glc(b1-4)Glc = target: Glc(b1-4)Glc
# How it was run: as §1
# Glc(b1-6)Glc = target: Glc(b1-6)Glc
# How it was run: as §1
# GlcA(b1-3)Gal = target: GlcA(b1-3)Gal
# How it was run: as §1
# GlcA(b1-3)GlcNAc = target: GlcA(b1-3)GlcNAc
# How it was run: as §1
# GlcA(b1-6)Gal = target: GlcA(b1-6)Gal
# How it was run: as §1
# [9] = target: GlcNAc(a1-3)Gal(b1-4)GlcNAc
# How it was run: as §1
# [10] = target: GlcNAc(a1-4)Gal(b1-3)GlcNAc
# How it was run: as §1
# [11] = target: GlcNAc(a1-4)Gal(b1-4)GalNAc
# How it was run: as §1
# [12] = target: GlcNAc(a1-4)Gal(b1-4)GlcNAc
# How it was run: as §1
# [13] = target: GlcNAc(a1-4)Gal(b1-4)GlcNAc(b1-3)Gal(b1-4)Glc
# How it was run: as §1
# [14] = target: GlcNAc(a1-4)Gal(b1-4)GlcNAc(b1-3)Gal(b1-4)GlcNAc
# How it was run: as §1
# [15] = target: GlcNAc(a1-4)Gal(b1-4)GlcNAc(b1-3)Gal(b1-4)GlcNAc(b1-3)Gal(b1-4)GlcNAc
# How it was run: as §1
# [16] = target: GlcNAc(a1-4)Gal(b1-4)GlcNAc(b1-3)Gal(b1-4)[Fuc(a1-3)]GlcNAc(b1-3)Gal(b1-4)[Fuc(a1-3)]GlcNAc
# How it was run: as §1
# [17] = target: GlcNAc(a1-6)Gal(b1-4)GlcNAc
# How it was run: as §1
# [18] = target: GlcNAc(b1-2)Gal(b1-3)GalNAc
# How it was run: as §1
# [19] = target: GlcNAc(b1-2)Man(a1-3)[GlcNAc(b1-2)Man(a1-6)]Man(b1-4)GlcNAc(b1-4)GlcNAc
# How it was run: as §1
# [20] = target: GlcNAc(b1-2)Man(a1-3)[GlcNAc(b1-2)Man(a1-6)]Man(b1-4)GlcNAc(b1-4)[Fuc(a1-6)]GlcNAc
# How it was run: as §1
binder,measurement,setting,value
B1,glycan array binding signal (z-score),Gal6S(b1-4)Glc6S,-0.154
same,glycan array binding signal (z-score),Gal6S(b1-4)GlcNAc,-0.158
same,glycan array binding signal (z-score),Gal6S(b1-4)GlcNAc6S,-0.161
same,glycan array binding signal (z-score),GalNAc(a1-3)Gal,-0.116
same,glycan array binding signal (z-score),GalNAc(a1-3)GalNAc,-0.149
same,glycan array binding signal (z-score),[1],-0.162
same,glycan array binding signal (z-score),[2],-0.161
same,glycan array binding signal (z-score),GalNAc(b1-3)Gal,-0.16
same,glycan array binding signal (z-score),[3],-0.126
same,glycan array binding signal (z-score),[4],-0.071
same,glycan array binding signal (z-score),[5],-0.157
same,glycan array binding signal (z-score),GalNAc(b1-3)GalNAc,-0.156
same,glycan array binding signal (z-score),GalNAc(b1-4)Gal(b1-4)Glc,-0.162
same,glycan array binding signal (z-score),GalNAc(b1-4)GlcNAc,-0.156
same,glycan array binding signal (z-score),[6],-0.161
same,glycan array binding signal (z-score),GalNAc(b1-6)GalNAc,-0.162
same,glycan array binding signal (z-score),Glc(a1-4)Glc,-0.16
same,glycan array binding signal (z-score),[7],-0.163
same,glycan array binding signal (z-score),Glc(a1-6)Glc(a1-6)Glc,-0.161
same,glycan array binding signal (z-score),[8],-0.161
same,glycan array binding signal (z-score),Glc(b1-4)Glc,-0.16
same,glycan array binding signal (z-score),Glc(b1-6)Glc,-0.162
same,glycan array binding signal (z-score),GlcA(b1-3)Gal,8.44
same,glycan array binding signal (z-score),GlcA(b1-3)GlcNAc,-0.156
same,glycan array binding signal (z-score),GlcA(b1-6)Gal,-0.158
same,glycan array binding signal (z-score),[9],-0.164
same,glycan array binding signal (z-score),[10],-0.163
same,glycan array binding signal (z-score),[11],-0.159
same,glycan array binding signal (z-score),[12],-0.158
same,glycan array binding signal (z-score),[13],-0.151
same,glycan array binding signal (z-score),[14],-0.155
same,glycan array binding signal (z-score),[15],-0.162
same,glycan array binding signal (z-score),[16],-0.154
same,glycan array binding signal (z-score),[17],-0.159
same,glycan array binding signal (z-score),[18],-0.16
same,glycan array binding signal (z-score),[19],-0.162
same,glycan array binding signal (z-score),[20],-0.16
